Biological target: T1, GST-RIOX1 (mouse, UniProt Q9JJF3 1-603)
T1 construct: ribosomal oxygenase 1 (RIOX1), mouse; only the mouse Riox1 cDNA was cloned; also called purified GST-RIOX1 protein; source: E. coli BL21(DE3), purified
T1 sequence (looked up): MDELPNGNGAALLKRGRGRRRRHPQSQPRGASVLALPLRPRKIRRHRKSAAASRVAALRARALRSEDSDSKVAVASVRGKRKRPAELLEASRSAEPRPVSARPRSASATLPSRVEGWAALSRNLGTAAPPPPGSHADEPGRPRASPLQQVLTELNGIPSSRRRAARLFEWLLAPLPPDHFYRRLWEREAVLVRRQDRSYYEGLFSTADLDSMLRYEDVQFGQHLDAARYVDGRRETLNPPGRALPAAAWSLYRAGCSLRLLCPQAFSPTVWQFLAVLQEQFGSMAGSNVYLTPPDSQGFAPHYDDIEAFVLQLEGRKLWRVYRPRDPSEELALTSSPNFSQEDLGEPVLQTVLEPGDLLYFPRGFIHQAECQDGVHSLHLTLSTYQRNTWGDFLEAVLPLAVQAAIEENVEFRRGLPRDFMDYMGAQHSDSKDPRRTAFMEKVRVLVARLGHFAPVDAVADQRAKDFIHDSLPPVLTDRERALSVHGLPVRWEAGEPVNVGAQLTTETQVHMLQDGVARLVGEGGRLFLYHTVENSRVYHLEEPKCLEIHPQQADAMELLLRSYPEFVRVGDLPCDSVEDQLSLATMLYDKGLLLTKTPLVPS
Experiment: pull-down; GST pulldown: bacterially purified GST-RIOX1 mixed with purified His-cGAS; immunoblot
Details: both partners purified

B1: His-cGAS (natural protein)
chain: not shown
notes: cyclic GMP-AMP synthase (cGAS), mouse; mouse and human cGAS were both cloned; also called bacterially purified cGAS protein; purified His-cGAS protein; source: E. coli BL21(DE3), purified
B1: binds.

Reference: publication PMC8873214, “RIOX1-demethylated cGAS regulates ionizing radiation-elicited DNA repair” (Bone Research, 2022)
